Results on 40 compounds are retold here after the antibiotic and cytotoxicity screens of Wong et al. (2023).

The list shows a part of the results.

The test concerns S. aureus RN4220. Briefly: growth inhibition call (relative growth <= 0.2). The note with it: 50 µM.
`Clc1ccc2c(c1)C(N1CCNCC1)=Nc1ccccc1O2`: the growth inhibition call is “inactive”.

On to `O=C(CN1CCOCC1)NCC[C@@H]1CC[C@H](NC(=O)Nc2ccccc2)[C@H](CO)O1`, for which the growth inhibition call is “inactive”.

With `Cc1ccc(S(=O)(=O)Nc2ccc3c(c2)C(=O)N([C@@H](C)CO)C[C@@H](C)[C@H](CN(C)S(=O)(=O)c2ccc(C)cc2)OCCCC[C@@H](C)O3)cc1`, the growth inhibition call was “inactive”. As for `COc1ccc(-c2cnc3c(c2)C(=O)N([C@H](C)CO)C[C@H](C)[C@H](CN(C)S(=O)(=O)c2cccc(F)c2)O3)cc1`, the entry is “inactive”; as for `CC(C)NC(=O)N(C)C[C@H]1Oc2c(NC(=O)NC3CCCCC3)cccc2C(=O)N([C@@H](C)CO)C[C@H]1C`, “inactive”; as for `C[C@@H]1CN([C@H](C)CO)C(=O)c2cc(NC(=O)NC3CCCCC3)ccc2O[C@@H](C)CCCCO[C@H]1CN(C)Cc1ccc2c(c1)OCO2`, “inactive”.

As for `COc1ccc(NC(=O)N(C)C[C@H]2Oc3ncc(C#C[C@@H](C)O)cc3C(=O)N([C@H](C)CO)C[C@@H]2C)cc1`, the growth inhibition call was “inactive”. In the case of `C[C@@H]1CN([C@H](C)CO)C(=O)c2cc(NS(=O)(=O)c3ccc(Cl)cc3)ccc2O[C@@H](C)CCCCO[C@@H]1CN(C)C(=O)C1CCCCC1`, the growth inhibition call was “inactive”.

As to `C=CCOC(=O)[C@H]1[C@@H]2C(=O)O[C@@H](c3ccccc3)[C@@H](c3ccccc3)N2[C@@H](c2ccc(OCCOC(=O)[C@H]3C[C@H]4C(=O)N[C@@H](CCCC[N+](C)(C)C)C(=O)N4[C@H]3c3cccc(OCCO)c3)cc2)[C@]12C(=O)Nc1ccc(I)cc12`, the growth inhibition call is “inactive”.

On to `Cc1noc(C)c1NC(=O)Nc1ccc2c(c1)CC(=O)N([C@H](C)CO)C[C@@H](C)[C@H](CN(C)CC1CC1)O2`, for which the growth inhibition call was “inactive”. Consider `C[C@@H]1CN([C@@H](C)CO)C(=O)c2cccc(NS(C)(=O)=O)c2O[C@H]1CN(C)S(=O)(=O)c1cccs1`, for which the growth inhibition call is “inactive”.

As to `Cc1noc(C)c1NC(=O)N(C)C[C@@H]1Oc2ccc(NC(=O)C3CC3)cc2CC(=O)N([C@H](C)CO)C[C@@H]1C`, the growth inhibition call was “inactive”.

Take `CNC(=O)CN1CC[C@]12CCN(C(=O)c1ccn(C)n1)C2`: the growth inhibition call is “inactive”.

For `CCC(C=CC(C)C1CCC2C3CCC4=CC(=O)CCC4(C)C3CCC12C)C(C)C` (stereo not given), the growth inhibition call was “inactive”.

Regarding `C[C@@H]1CN([C@H](C)CO)C(=O)c2cc(NS(=O)(=O)c3ccccc3)ccc2O[C@@H](C)CCCCO[C@H]1CN(C)Cc1ccc(C(=O)O)cc1`, the growth inhibition call is “inactive”. As for `C[C@@H]1CN([C@@H](C)CO)S(=O)(=O)c2ccc(-c3ccncc3)cc2O[C@H]1CN(C)C(=O)c1ccc2c(c1)OCO2`, the growth inhibition call was “inactive”. Regarding `COc1ccccc1C#Cc1cnc2c(c1)C(=O)N([C@@H](C)CO)C[C@H](C)[C@H](CN(C)C(=O)CC1CC1)O2`, the growth inhibition call is “inactive”. Regarding `C[C@H](CO)N1C[C@H](C)[C@@H](CN(C)Cc2ccncc2)Oc2ccc(NS(=O)(=O)c3cccs3)cc2C1=O`, the growth inhibition call is “inactive”. Consider `C[C@@H](O)C#Cc1ccc2c(c1)O[C@H](CN(C)C(=O)Nc1ccccc1)[C@@H](C)CN([C@@H](C)CO)S2(=O)=O`, for which the growth inhibition call was “inactive”. Consider `C[C@H]1CN([C@@H](C)CO)C(=O)Cc2cc(NC(=O)Cc3cn(C)c4ccccc34)ccc2O[C@@H]1CN(C)Cc1ccc(-c2ccccc2)cc1`, for which the growth inhibition call was “inactive”.

`COc1ccc(NC(=O)N(C)C[C@@H]2OCCCC[C@H](C)Oc3ccc(NS(=O)(=O)c4ccc(F)cc4)cc3C(=O)N([C@H](C)CO)C[C@@H]2C)cc1`: the growth inhibition call was “inactive”. In the case of `CC(C)CC#Cc1ccc2c(c1)O[C@@H](CN(C)C(=O)Cc1ccccn1)[C@H](C)CN([C@@H](C)CO)S2(=O)=O`, the growth inhibition call was “inactive”. For `C[C@@H]1CN([C@@H](C)CO)C(=O)c2c(c3ccccc3n2C)-c2ccccc2CO[C@H]1CN(C)Cc1ccc(C(=O)O)cc1`, the growth inhibition call was “inactive”. Take `Cc1ccc(S(=O)(=O)Nc2ccc3c(c2)C(=O)N([C@@H](C)CO)C[C@H](C)[C@H](CN(C)S(=O)(=O)c2ccccc2)O3)cc1`: the growth inhibition call was “inactive”. For the compound `Cc1ccc(S(=O)(=O)Nc2ccc3c(c2)C(=O)N([C@H](C)CO)C[C@H](C)[C@@H](CN(C)Cc2ccc(Cl)c(Cl)c2)OCCCC[C@@H](C)O3)cc1`, the growth inhibition call is “inactive”.

As to `C[C@@H]1CN([C@H](C)CO)C(=O)c2cc(NC(=O)Nc3ccc4c(c3)OCO4)ccc2O[C@@H](C)CCCCO[C@H]1CN(C)Cc1ccc2c(c1)OCO2`, the growth inhibition call is “inactive”. As for `COc1ccc(S(=O)(=O)Nc2ccc3c(c2)C(=O)N([C@H](C)CO)C[C@@H](C)[C@H](CN(C)C(=O)Nc2ccc(F)cc2)OCCCC[C@H](C)O3)cc1`, the entry is “inactive”; as for `Cc1noc(C)c1NC(=O)Nc1ccc2c(c1)C(=O)N([C@H](C)CO)C[C@@H](C)[C@@H](CN(C)S(=O)(=O)c1c(C)noc1C)O2`, “inactive”; as for `NC(Cc1ccc(O)c(O)c1)C(=O)O` (stereo not given), “inactive”. Consider `C[C@H]1CN([C@@H](C)CO)C(=O)c2cc(NC(=O)Cc3cn(C)c4ccccc34)ccc2O[C@H]1CN(C)CC1CCCCC1`, for which the growth inhibition call was “inactive”.

For `C[C@@H]1CN([C@H](C)CO)C(=O)Cc2cc(NS(C)(=O)=O)ccc2O[C@@H]1CN(C)C(=O)Nc1ccc2c(c1)OCO2`, the growth inhibition call is “inactive”. On to `O=S(=O)(NCC[C@H]1CC[C@H](NS(=O)(=O)c2cccc(Cl)c2)[C@H](CO)O1)c1cccc(F)c1`, for which the growth inhibition call is “inactive”.

For `Cc1ccc(-c2cnc3c(c2)C(=O)N([C@@H](C)CO)C[C@H](C)[C@@H](CN(C)C(=O)Cc2cccnc2)O3)cc1`, the growth inhibition call was “inactive”.

Take `Cc1noc(C)c1NC(=O)Nc1ccc2c(c1)C(=O)N([C@H](C)CO)C[C@@H](C)[C@@H](CN(C)C(=O)NC(C)C)O2`: the growth inhibition call is “inactive”. For the compound `C[C@@H]1CN([C@H](C)CO)C(=O)c2cc(C#C[C@@H](C)O)cnc2O[C@@H]1CN(C)C(=O)Nc1ccc(C(F)(F)F)cc1`, the growth inhibition call is “inactive”. As to `Nc1ncnc2c1ncn2[C@@H]1C=C[C@H](CO)O1`, the growth inhibition call is “inactive”. Take `COc1ccc(S(=O)(=O)Nc2ccc3c(c2)CC(=O)N([C@@H](C)CO)C[C@H](C)[C@@H](CN(C)Cc2ccc(C(=O)O)cc2)O3)cc1`: the growth inhibition call was “inactive”. For the compound `COc1ccc2c3c(n(c2c1)C)[C@@H](CO)N(C[C@]13CCN(CC1)S(=O)(=O)c1ccccc1)C(=O)c1cccnc1`, the growth inhibition call is “inactive”. As for `COc1ccc(S(=O)(=O)Nc2ccc3c(c2)C(=O)N([C@@H](C)CO)C[C@H](C)[C@H](CN(C)Cc2ccccc2)OCCCC[C@@H](C)O3)cc1`, the entry is “inactive”; as for `COc1ccc([C@H]2[C@@H](C(N)=O)C2(C#N)C#N)cc1`, “inactive”.
